Our source for the binding values is paper PMC5021524.

Results are given in words; binding and its absence hold for the method and conditions named. For some of these results: In cells and extracts the contact can be indirect. Some entries that bind do so weakly or less than the wild type. Sequences can lack the tags named with a protein.

The target of experiment [1] is T1, His6-cytLnp-N1-HA (Xenopus) (UniProt Q6DFJ8).
T1 sequence: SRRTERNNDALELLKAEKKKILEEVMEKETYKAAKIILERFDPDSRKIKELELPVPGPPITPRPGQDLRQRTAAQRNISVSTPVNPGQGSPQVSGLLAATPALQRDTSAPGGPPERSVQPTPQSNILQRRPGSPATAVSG
Put plainly: pull-down; Xenopus light membranes incubated with 5 µM His6-cytLnp/N1/N2/C-HA, solubilized with 1% Triton X-100 in 20 mM HEPES pH 7.5, 50 mM KCl; HA agarose resin 2 hrs at 4°C; immunoblot with Xenopus Lnp antibodies; only the target purified.

Experiment [2] deals with T2, His6-cytLnp-HA (Xenopus) (UniProt Q6DFJ8).
T2 sequence: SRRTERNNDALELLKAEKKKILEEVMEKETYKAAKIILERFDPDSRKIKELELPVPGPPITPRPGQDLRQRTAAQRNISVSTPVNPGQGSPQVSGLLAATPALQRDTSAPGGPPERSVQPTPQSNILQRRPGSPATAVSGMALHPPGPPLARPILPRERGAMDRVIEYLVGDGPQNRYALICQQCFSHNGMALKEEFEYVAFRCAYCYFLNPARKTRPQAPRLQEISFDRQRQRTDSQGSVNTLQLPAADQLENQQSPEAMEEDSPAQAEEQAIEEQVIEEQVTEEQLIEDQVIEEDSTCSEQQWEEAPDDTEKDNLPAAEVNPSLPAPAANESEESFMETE
Described as above.

Experiment [3] deals with T3, His6-cytLnp-N2-HA (Xenopus) (UniProt Q6DFJ8).
T3 sequence: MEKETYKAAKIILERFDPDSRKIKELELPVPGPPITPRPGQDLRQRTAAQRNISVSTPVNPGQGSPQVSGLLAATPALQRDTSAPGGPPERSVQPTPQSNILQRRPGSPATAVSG
Described as above.

In experiment [4] the target is T4, His6-cytLnp-C-HA (Xenopus) (UniProt Q6DFJ8).
T4 sequence: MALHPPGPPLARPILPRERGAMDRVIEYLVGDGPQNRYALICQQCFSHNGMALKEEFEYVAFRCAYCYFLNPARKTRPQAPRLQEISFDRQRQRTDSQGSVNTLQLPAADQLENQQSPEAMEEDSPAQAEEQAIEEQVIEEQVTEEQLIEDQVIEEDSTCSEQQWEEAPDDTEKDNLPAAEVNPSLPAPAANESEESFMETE
Described as above.

Experiment [5] has as its target T1, His6-cytLnp-N1-HA (Xenopus). Nature of the experiment: pull-down; purified prey (His6-cytLnp, or Sumo-cytLnp / Sumo-cytLnp-E) mixed at a 5:1 ratio with HA-tagged bait for 1 hr at 4°C in 20 mM HEPES pH 7.5, 100 mM KCl, 0.05% TX-100; HA agarose resin; SDS-PAGE and Coomassie blue staining; both purified.
Experiment [6] has as its target T3, His6-cytLnp-N2-HA (Xenopus). Described as above.
For experiment [7], the target named is T4, His6-cytLnp-C-HA (Xenopus). The experiment is described as above.
The target in a further experiment is His6-cytLnp (Xenopus) (UniProt Q6DFJ8). Nature of the experiment: SEC; 400 µg of purified protein in 200 µL on a Superdex 200 column in 20 mM HEPES pH 7.5, 150 mM KCl, 1 mM DTT; both purified.
The target in experiment [8] is T5, His6-cytLnp-SBP (Xenopus) (UniProt Q6DFJ8).
T5 sequence: T2 sequence
Nature of the experiment: pull-down; purified His6-cytLnp and His6-cytLnp-SBP (3:1) incubated in Xenopus interphase cytosol with an energy regenerating system, without or with cyclin B∆90 (mitotic), 1 hr at room temperature; magnetic streptavidin resin 1 hr at 4°C in 20 mM HEPES pH 7.5, 100 mM KCl, 0.05% TX-100 with phosphatase inhibitors; eluted with biotin; Coomassie blue staining; both purified.

Experiment [9] deals with T2, His6-cytLnp-HA (Xenopus). Put plainly: pull-down; purified prey (His6-cytLnp, or Sumo-cytLnp / Sumo-cytLnp-E) mixed at a 5:1 ratio with HA-tagged bait for 1 hr at 4°C in 20 mM HEPES pH 7.5, 100 mM KCl, 0.05% TX-100; HA agarose resin; SDS-PAGE and Coomassie blue staining; both purified.
The target of the next experiment is His6-cytLnp-N2 (Xenopus) (UniProt Q6DFJ8). Put plainly: SEC; 400 µg of purified protein in 200 µL on a Superdex 200 column in 20 mM HEPES pH 7.5, 150 mM KCl, 1 mM DTT; both purified.
The target of another experiment is His6-cytLnp-C (Xenopus) (UniProt Q6DFJ8). Described as above.
For another experiment, the target named is His6-cytLnp-N1 (Xenopus) (UniProt Q6DFJ8). The experiment is described as above.

B1: endogenous Xenopus egg Lnp (protein, UniProt Q6DFJ8 1-440)
chain: MGALLAKWRAKPSTVEVLEKMEKDIQSLEEFRDKNQKLRKIWVARLFFYSTILYILTSLTVYLWYLPGGMTARLLTTLLFLLFPVLIWFVRTLLILWFSRRTERNNDALELLKAEKKKILEEVMEKETYKAAKIILERFDPDSRKIKELELPVPGPPITPRPGQDLRQRTAAQRNISVSTPVNPGQGSPQVSGLLAATPALQRDTSAPGGPPERSVQPTPQSNILQRRPGSPATAVSGMALHPPGPPLARPILPRERGAMDRVIEYLVGDGPQNRYALICQQCFSHNGMALKEEFEYVAFRCAYCYFLNPARKTRPQAPRLQEISFDRQRQRTDSQGSVNTLQLPAADQLENQQSPEAMEEDSPAQAEEQAIEEQVIEEQVTEEQLIEDQVIEEDSTCSEQQWEEAPDDTEKDNLPAAEVNPSLPAPAANESEESFMETE
Regarding B1, the binding entry in experiment [1] is “no binding (tested: 5 µM)”; with His6-cytLnp-HA (Xenopus) [2] it was “binds”; in experiment [3], “no binding (tested: 5 µM)”; in experiment [4] it was “binds”.

B2: His6-cytLnp (domain or fragment, UniProt Q6DFJ8 99-440)
chain: T2 sequence
As for B2, the binding entry is recorded as “no binding” in experiment [5]; “no binding” in experiment [6]; “binds” in experiment [7]; “binds” with His6-cytLnp (Xenopus); “binds” in experiment [8].

B3: Sumo-cytLnp (domain or fragment, UniProt Q6DFJ8 99-440)
chain: T2 sequence
Regarding B3, in the experiment with His6-cytLnp-HA (Xenopus) [9], the binding result was “binds”.

B4: His6-cytLnp-N2 (domain or fragment, UniProt Q6DFJ8 124-238)
chain: T3 sequence
With B4, the binding entry in the experiment with His6-cytLnp-N2 (Xenopus) is recorded as “no binding (tested: 400 µg in 200 µL)”.

B5: His6-cytLnp-C (domain or fragment, UniProt Q6DFJ8 239-440)
chain: T4 sequence
Regarding B5, in the experiment with His6-cytLnp-C (Xenopus), the binding result is “binds”.

B6: His6-cytLnp-N1 (domain or fragment, UniProt Q6DFJ8 99-238)
chain: T1 sequence
For the molecule B6, the binding result with His6-cytLnp-N1 (Xenopus) is given as “no binding (tested: 400 µg in 200 µL)”.
